Results published in the supplement of paper PMC4604168 (melanoma cell lines).
Some of the results follow. Single values are uncertain, as repeats are few or missing.

Columns and labels:
Assay in all cases: cell count relative to DMSO control; melanoma cells; higher = more viable cells
Conditions in all cases: library dose: low library concentration; 72 h
[1] = tested on: COLO792
[2] = tested on: COLO800
[3] = tested on: COLO829
[4] = tested on: G361
[5] = tested on: IPC-298
[6] = tested on: IST-MEL1
[7] = tested on: LB2518-MEL
[8] = tested on: LOXIMVI
[9] = tested on: MEL-HO
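Further: cell number obtained by counting DAPI-stained nuclei in high-throughput microscope images with image analysis software, screen run in 1,536-well plates.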

Row | Compound | cell count [1] [%] | cell count [2] [%] | cell count [3] [%] | cell count [4] [%] | cell count [5] [%] | cell count [6] [%] | cell count [7] [%] | cell count [8] [%] | cell count [9] [%]
1 | CC[C@]1(O)C[C@H]2CN(CCc3c([nH]c4ccccc34)[C@@](C(=O)OC)(c3cc4c(cc3OC)N(C=O)[C@H]3[C@@](O)(C(=O)OC)[C@H](OC(C)=O)[C@]5(CC)C=CCN6CC[C@]43[C@@H]65)C2)C1 [vincristine] + O=C(O)c1ccc(-c2c[nH]c3ncc(-c4ccccc4)cc23)cc1C1CCCC1 [GSK650394] (first compound 0.0001 µM, partner dose 0.16 µM) | 103 | 95.6 | 95.8 | 92.1 | 97.4 | 105 | 85.3 | 107 | 91.5
2 | Cc1cc(Nc2cc(N3CCN(C)CC3)nc(Sc3ccc(NC(=O)C4CC4)cc3)n2)n[nH]1 [Tozasertib] + COC(=O)c1sccc1S(=O)(=O)Nc1ccc(Nc2ccccc2)cc1OC [GSK0660] (first compound 0.006 µM, partner dose 1 µM) | 119 | 78.4 | 95.6 | 98.9 | 98 | 109 | 100 | 118 | 92.5
3 | CC[C@]1(O)C[C@H]2CN(CCc3c([nH]c4ccccc34)[C@@](C(=O)OC)(c3cc4c(cc3OC)N(C=O)[C@H]3[C@@](O)(C(=O)OC)[C@H](OC(C)=O)[C@]5(CC)C=CCN6CC[C@]43[C@@H]65)C2)C1 [vincristine] + CN(C)S(=O)(=O)c1ccc2c(c1)/C(=C/c1cc3c([nH]1)CCCC3)C(=O)N2 [SU6656] (first compound 0.0001 µM, partner dose 0.4 µM) | 95.2 | 84.8 | 63.5 | 84.7 | 98.4 | 95.4 | 102 | 70.8 | 108
4 | CC[C@]1(O)C[C@H]2CN(CCc3c([nH]c4ccccc34)[C@@](C(=O)OC)(c3cc4c(cc3OC)N(C=O)[C@H]3[C@@](O)(C(=O)OC)[C@H](OC(C)=O)[C@]5(CC)C=CCN6CC[C@]43[C@@H]65)C2)C1 [vincristine] + O=C(O)C(=O)Nc1sc2c(c1C(=O)O)CCNC2 [TCS401] (first compound 0.0001 µM, partner dose 1.66667 µM) | 102 | 88.6 | 83 | 87.7 | 97.7 | 102 | 76.3 | 70.3 | 102
